The whole screen tested about 350,000 compounds, of which about 31,000 (8.9%) were called active. This list was built around the results that the source calls inconclusive (neither active nor inactive); the mix of calls is not that of the screen. Calls come from the whole dose curve; as a rule, active = well fitted inhibition curve with a large enough effect; inconclusive = small, poorly fitted or top-dose-only effect; inactive = no such curve, though single readings can be large or run the other way. A potency beside an inconclusive call is a rough fit, not a confirmed value.
Target: Histone-lysine N-methyltransferase EHMT2 (Homo sapiens) (UniProt Q96KQ7)
UniProt Q96KQ7, sequence (Q96KQ7 whole entry, looked up): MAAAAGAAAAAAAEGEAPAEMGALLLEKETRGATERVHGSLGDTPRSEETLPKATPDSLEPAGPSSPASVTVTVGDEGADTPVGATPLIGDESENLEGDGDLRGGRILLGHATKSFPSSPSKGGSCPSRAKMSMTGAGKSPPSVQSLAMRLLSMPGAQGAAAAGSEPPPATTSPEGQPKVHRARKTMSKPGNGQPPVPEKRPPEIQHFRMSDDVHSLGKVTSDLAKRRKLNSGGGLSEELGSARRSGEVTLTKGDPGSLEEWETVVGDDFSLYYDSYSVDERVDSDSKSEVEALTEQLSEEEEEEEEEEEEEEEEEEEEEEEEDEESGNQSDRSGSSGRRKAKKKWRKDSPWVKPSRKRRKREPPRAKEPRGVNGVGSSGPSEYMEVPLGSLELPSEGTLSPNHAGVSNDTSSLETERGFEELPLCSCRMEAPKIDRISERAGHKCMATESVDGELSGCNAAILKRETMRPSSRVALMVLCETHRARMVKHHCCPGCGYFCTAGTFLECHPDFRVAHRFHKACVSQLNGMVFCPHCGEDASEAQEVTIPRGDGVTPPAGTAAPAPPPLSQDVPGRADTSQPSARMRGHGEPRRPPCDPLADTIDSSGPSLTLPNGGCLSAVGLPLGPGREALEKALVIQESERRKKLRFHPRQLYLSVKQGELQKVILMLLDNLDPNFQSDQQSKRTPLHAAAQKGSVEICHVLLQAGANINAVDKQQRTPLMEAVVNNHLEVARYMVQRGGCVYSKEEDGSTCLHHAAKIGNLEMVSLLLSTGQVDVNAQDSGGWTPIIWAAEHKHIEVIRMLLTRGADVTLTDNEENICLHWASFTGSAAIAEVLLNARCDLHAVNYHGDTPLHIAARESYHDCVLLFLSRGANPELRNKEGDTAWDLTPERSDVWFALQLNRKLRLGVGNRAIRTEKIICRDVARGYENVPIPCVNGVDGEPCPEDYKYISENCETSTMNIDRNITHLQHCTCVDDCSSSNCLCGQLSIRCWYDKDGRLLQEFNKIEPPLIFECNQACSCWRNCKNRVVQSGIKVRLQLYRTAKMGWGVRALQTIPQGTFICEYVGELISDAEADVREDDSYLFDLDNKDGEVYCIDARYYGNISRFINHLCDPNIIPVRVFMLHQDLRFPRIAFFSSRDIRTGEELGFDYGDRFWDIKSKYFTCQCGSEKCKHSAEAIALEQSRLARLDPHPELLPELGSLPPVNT
Experiment: qHTS Assay for Inhibitors of Histone Lysine Methyltransferase G9a; note: nearly all actives have a fitted effect of over 75% in size
Details: G9a H3K9 monomethylation, AlphaScreen, 2 h; activity, negative = inhibition: at 59 µM (top of the series) unless noted
Summary of the method: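 Enzyme 20 nM + cpd, 15 min RT; add b-H3K9 pep 500 nM / SAM 20 uM; 2 h RT; anti-H3K9me1 Ab 0.5 ug/mL + SA donor / anti-rabbit acceptor beads 20 ug/mL each, 10 min; AlphaScreen read.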
% is set by controls: 0 for no effect and ±100 for the full control effect; potency is the fitted concentration of half-maximal effect; tags give direction and shape of the fitted curve.

| SMILES | Potency | activity, negative = inhibition |
| --- | --- | --- |
| CCc1ccc(NC(=O)CSc2nnc3[nH]c(=O)cc(-c4ccccc4)n23)cc1 | inconclusive: 7.94 µM [inhibitor, partial curve, poor fit] |  |
| COc1ccccc1N1CCN(CCCCOc2ccc(C)cc2C)CC1 | active: 7.08 µM |  |
| CCCCNC(=O)C1CCN(S(=O)(=O)N2CCCCCC2)CC1 | inactive |  |
| CS(=O)(=O)NCCCNc1c(Cl)cccc1[N+](=O)[O-] | inconclusive: 1.26 µM [inhibitor, full curve, poor fit] |  |
| O=S(=O)(c1ccc(C2=CSC3=NCCN23)cc1)N1CCOCC1 |  | inconclusive: -72.7% [inhibitor] |
| COc1ccc(NC(=O)c2c(NC(=O)C(F)(F)F)sc3c2CCCCC3)cc1 | inconclusive: 1.41 µM [inhibitor, full curve] |  |
| COc1ccc(Cn2ccc3nc(C)c(C(=O)N4CCN(c5cccc(OC)c5)CC4)cc3c2=O)cc1 | inactive |  |
| O=C(Nc1nc2n(n1)C(c1ccccc1)C=C(c1ccccc1)N2)c1ccco1 (stereo not given) | active: 22.4 µM |  |
| O=C(CC1C(=O)NCCN1Cc1c(F)cccc1Cl)NCCCN1CCCC1=O (stereo not given) | inconclusive: 89.1 µM [inhibitor, single point] |  |
| O=C1CC(NCc2ccccc2)C(=O)N1c1ccc(F)cc1 (stereo not given) | inconclusive: 28.2 µM [inhibitor, single point] |  |
| O=C(Cc1csc(Nc2nc(=S)[nH]c3ccccc23)n1)NCCCN1CCN(c2cccc(Cl)c2)CC1 | inconclusive: 39.8 µM [inhibitor, partial curve] |  |
| Cc1cccc(C)c1OCC(=O)Nc1ccccc1N1CCCCC1 | inactive |  |
| N=C1/C(=C\c2ccc(OC(=O)c3ccccc3)cc2)C(=O)N=C2SC(N3CCOCC3)=NN12 | inconclusive: 89.1 µM [inhibitor, single point] |  |
| COc1ccc(OC)c(S(=O)(=O)N2CCCCC2C(=O)N2CCN(c3ccccn3)CC2)c1 (stereo not given) | inconclusive: 89.1 µM [inhibitor, single point] |  |
| COc1cc(CNc2ncc(-c3ccc(Cl)cc3)n2C)cc(OC)c1OC | active: 4.47 µM |  |
| COc1ccccc1-n1cc(-c2ccccc2)[nH]c1=S | active: 10 µM |  |
| COc1cc(C2C3=C(CCCC3=O)Nc3[nH]n(-c4ccccc4)c(=O)c32)ccc1OC(C)=O (stereo not given) | active: 44.7 µM |  |
| COc1ccccc1N1CCN(C(=O)c2cc(-c3ccc(C)c(F)c3)on2)CC1 | inconclusive: 28.2 µM [inhibitor, partial curve, poor fit] |  |
| CC(C)Oc1ccc(OCCn2c(S(=O)(=O)O)nc3c(N)ncnc32)cc1 | inconclusive: 89.1 µM [inhibitor, single point] |  |
| CCOC(=O)C(CCSC)NC(=O)CN (stereo not given) | inconclusive: 89.1 µM [inhibitor, single point] |  |
| COc1ccc(CNC(=O)C2Cc3cc(S(=O)(=O)N4CCCC4)ccc3N2C(C)=O)c(OC)c1 (stereo not given) | active: 22.4 µM |  |
| CCc1ccc(C(=O)CN2CCSC2=N)cc1 | inconclusive: 28.2 µM [inhibitor, single point] |  |
| NC(=O)N/N=C/c1ccc(-c2ccc([N+](=O)[O-])cc2)o1 | inconclusive: 56.2 µM [inhibitor, partial curve, poor fit] |  |
| COc1ccc(C)cc1CN(C)c1ccc(S(=O)(=O)N2CCN(C)CC2)cn1 | inconclusive: 50.1 µM [inhibitor, partial curve] |  |

| SMILES | Potency | activity, negative = inhibition |
| --- | --- | --- |
| COc1cc(NS(=O)(=O)c2cccc3nsnc23)c(C(=O)O)cc1OC | inconclusive: 56.2 µM [inhibitor, partial curve, poor fit] |  |
| O=C(Nc1ccc(S(=O)(=O)Nc2ncccn2)cc1)c1ccc(N2CCCC2=O)cc1 | inactive |  |
| C#CCOCCOCCOCCNc1nc(N2CCOCC2)nc(N2CCN(C(=O)CCCCCCCCCCNC(=O)[C@H](CO)n3cc(CCCCCN)nn3)CC2)n1 |  | inactive: 6.01% [at 2.33 µM] |
| CN(C)c1ccc(CN(C(=O)C2COc3ccccc3O2)C2CCS(=O)(=O)C2)cc1 (stereo not given) | active: 44.7 µM |  |
| COc1ccc(-c2cc(C(=O)Nc3sc4c(c3C(N)=O)CCCC4)no2)cc1 | inconclusive: 35.5 µM [inhibitor, single point] |  |
| CCN(CC(=O)Nc1c(F)cccc1F)C(=O)c1cccnc1Sc1ccccc1 | inactive |  |
| CCC(=O)N(CCCN(C)C)c1nc(-c2cc(OC)ccc2OC)cs1 | inconclusive: 25.1 µM [inhibitor, single point] |  |
| Cc1cc2nc(SC(C)C(=O)O)[nH]c2cc1C (stereo not given) | inconclusive: 79.4 µM [inhibitor, partial curve, poor fit] |  |
| COc1ccc(/C=N/NC(=O)CNc2ccc(Br)cc2)c(C(=O)O)c1OC | inactive |  |
| COc1ccccc1CNc1nc(C)c(C(C)=O)s1 | active: 11.2 µM |  |
| O=C(CSc1nnc(-c2cccs2)n1Cc1ccco1)c1ccc2c(c1)OCO2 | inconclusive: 4.47 µM [inhibitor, single point] |  |
| COc1cccc2cc(C(=O)Nc3ccc(CC(=O)O)cc3)c(=O)oc12 | inactive |  |
| Nc1nc(SCC(=O)Nc2cccc(S(=O)(=O)N3CCCCCC3)c2)n[nH]1 | inconclusive: 50.1 µM [inhibitor, partial curve, poor fit] |  |
| Cn1c(=O)n(C)c2cc(S(=O)(=O)NCCc3ccccc3)ccc21 | inactive |  |
| CC/C(C)=N/Nc1cccc([N+](=O)[O-])c1 | inconclusive: 89.1 µM [inhibitor, single point] |  |
| Cc1cc(C)n2c(SCC(=O)N3CCN(S(=O)(=O)c4ccc(Cl)cc4)CC3)nnc2n1 | inconclusive: 0.794 µM [inhibitor, partial curve, poor fit] |  |
| O=S(=O)(Nc1nc(-c2ccccc2)cs1)c1cc(Cl)ccc1Cl | inconclusive: 79.4 µM [inhibitor, partial curve, poor fit] |  |
| CCNC(=S)NNC(=O)c1csc(C(C)C)c1 | inactive |  |
| Cc1ccc(S(=O)(=O)NCCC(=O)Nc2nnc(C)s2)cc1 | inactive |  |
| COc1ccc(NC(=O)c2oc3ccc(S(=O)(=O)N4CCC5(CC4)OCCO5)cc3c2C)cc1 |  | inconclusive: -69.9% [inhibitor] |
| CCN(CC(=O)Nc1ccc(C)c(S(=O)(=O)N(C)C)c1)Cc1ccccc1 | inconclusive: 89.1 µM [inhibitor, single point] |  |
| CSC1=C(C#N)C(CC(C)C)C2=C(CCCC2=O)N1 (stereo not given) | inactive |  |
| Cc1ccc(NC(=O)COC(=O)CCc2nc3ccccc3n2-c2ccccc2)c(C)c1 | inactive |  |
| CC(C)(C)C1CCC(OC(=O)C[N+]2(C)CCCC2)CC1 (stereo not given) | inconclusive: 100 µM [inhibitor, single point] |  |

| SMILES | Potency | activity, negative = inhibition |
| --- | --- | --- |
| Cc1ccc2ccc(C(Nc3cccc(C(F)(F)F)c3)c3cccnc3)c(O)c2n1 (stereo not given) | active: 10 µM |  |
| O=C(c1ccc(Cl)c(S(=O)(=O)N2CCCCCC2)c1)N1CCN(c2ccc(O)cc2)CC1 | inconclusive: 1.78 µM [inhibitor, partial curve, poor fit] |  |
| CCCn1c(=O)[nH]c(=O)c2c1nc(-c1ccc3c(c1)OCCO3)n2CCN1CCOCC1 | inconclusive: 79.4 µM [inhibitor, single point] |  |
| O=C1c2ccccc2NC(c2ccc([N+](=O)[O-])cc2)N1O (stereo not given) | active: 56.2 µM |  |
| O=c1cnnc(Nc2ccccc2)[nH]1 | inactive |  |
| Cc1ccc(S(=O)(=O)Nc2ccc3oc(=O)sc3c2)c(C)c1 | inconclusive: 14.1 µM [inhibitor, partial curve, poor fit] |  |
| COc1cccc(-c2cc3c(=O)n(-c4ccccc4)c(=S)[nH]c3s2)c1 | inconclusive: 50.1 µM [inhibitor, partial curve] |  |
| COC(=O)C(C)N(C#N)c1nc(NC(C)C)nc(SC)n1 (stereo not given) | inconclusive: 89.1 µM [inhibitor, single point] |  |
| O=S(=O)(NCc1ccccc1Cl)c1ccc(-n2cccn2)cc1 | inconclusive: 89.1 µM [inhibitor, single point] |  |
| O=C(Nc1cccc(/C=C/c2ccccn2)c1)c1ccc(-n2cncn2)c([N+](=O)[O-])c1 | active: 35.5 µM |  |
| O=C(N/N=C/c1ccc(Cl)cc1)c1cc2c(s1)-c1ccccc1CC2 | inconclusive: 25.1 µM [inhibitor, single point] |  |
| Cc1ccc2cc(C)c3nnc(SCC(=O)c4cccs4)n3c2c1C | active: 35.5 µM |  |
| N#CCSc1nnc(-c2ccccc2)c(-c2ccccc2)n1 | inconclusive: 79.4 µM [inhibitor, single point] |  |
| COC(=O)C1NN=C(C(=O)c2ccccc2)C1c1ccccc1 (stereo not given) | inconclusive: 25.1 µM [inhibitor, single point] |  |
| CCCCc1nc(SCC(=O)Nc2nnc(CCCC)s2)n[nH]1 | inconclusive: 39.8 µM [inhibitor, single point] |  |
| CC(=O)c1ccc(S(=O)(=O)NC2CC2)cc1 | inconclusive: 79.4 µM [inhibitor, single point] |  |
| CC(=O)/C(=N\Nc1ccc(Cl)cc1Cl)Sc1nnc(-c2ccccc2)n1-c1ccccc1 | inconclusive: 10 µM [inhibitor, partial curve, poor fit] |  |
| COc1ccc(-n2cc(-c3ccccc3)c3c(N4CCN(CCO)CC4)ncnc32)cc1 | active: 50.1 µM |  |
| Cc1ccc(/C=C2/C(=N)N3N=C(CC(=O)N4CCCC4)SC3=NC2=O)o1 | active: 31.6 µM |  |
| COc1ccccc1NC(=O)N1CCCC1C(=O)NCc1ccccc1Cl (stereo not given) | inactive |  |
| COc1ccccc1CNC(=O)c1cccs1 | inactive |  |
| Cc1ccc(OCc2nc(-c3ccc(Cl)cc3)n[nH]2)cc1 |  | inconclusive: -54.1% [inhibitor] |

From PubChem BioAssay AID504332 (National Center for Advancing Translational Sciences (NCATS), 2011)
